# The list shows a part of the results. Single values are uncertain, as repeats are few or missing.
# Legend:
# Assay in all cases: cell count relative to DMSO control; melanoma cells; higher = more viable cells
# Details in all cases: library dose: low library concentration; 72 h
# [1] = system: MZ2-MEL
# [2] = system: MeWo
# [3] = system: RPMI7951
# [4] = system: RVH-421
# [5] = system: SkMel28
# [6] = system: SkMel2
# [7] = system: SkMel30
# [8] = system: SkMel5
# [9] = system: UACC257
# [10] = system: UACC62
# [11] = system: WM115
# [12] = system: WM1716
# [13] = system: WM1745
# [14] = system: WM3526
# [15] = system: WM3619
# [16] = system: WM451Lu
# 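Note: cell number obtained by counting DAPI-stained nuclei in high-throughput microscope images with image analysis software, screen run in 1,536-well plates.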
Compound,cell count [1] [%],cell count [2] [%],cell count [3] [%],cell count [4] [%],cell count [5] [%],cell count [6] [%],cell count [7] [%],cell count [8] [%],cell count [9] [%],cell count [10] [%],cell count [11] [%],cell count [12] [%],cell count [13] [%],cell count [14] [%],cell count [15] [%],cell count [16] [%]
"Cc1ccc(NC(=O)c2cccc(N(C)C)c2)cc1NC(=O)c1ccc(O)cc1 + CN(C)S(=O)(=O)c1ccc2c(c1)/C(=C/c1cc3c([nH]1)CCCC3)C(=O)N2 [SU6656] (first compound 2 µM, partner dose 0.4 µM)",95.1,93.9,103,92.1,85.2,100,59.2,105,101,101,82.1,100,86.7,87.2,90.1,97.9
"CCCCCCCCc1ccc(CCC(N)(CO)CO)cc1 [fingolimod] + CN(NC(=O)CC(=O)NN(C)C(=S)c1ccccc1)C(=S)c1ccccc1 [STA4783] (first compound 2 µM, partner dose 0.006 µM)",95,83.9,57.6,87.1,105,80.7,68.1,94.8,94.4,74.1,72.1,70.1,65.9,73.4,82.6,90.8
"NC(=O)c1ccc(N(C(N)=O)c2c(F)cccc2F)nc1-c1ccc(F)cc1F + C[C@@H]1CCN(C(=O)CC#N)C[C@@H]1N(C)c1ncnc2[nH]ccc12 [CP690550] (first compound 0.4 µM, partner dose 1 µM)",103,102,96.7,98.7,107,92.9,121,89.7,89.1,98.7,107,112,75.8,84.1,183,114
"Cc1ccc(NC(=O)c2cccc(N(C)C)c2)cc1NC(=O)c1ccc(O)cc1 + COc1cc2c(Oc3ccc4[nH]c(C)cc4c3F)ncnc2cc1OCCCN1CCCC1 [cediranib] (first compound 2 µM, partner dose 0.4 µM)",90.8,96.3,99.5,79.2,89.6,97.9,85.8,87.6,112,91.7,97.2,126,96.6,118,108,105
"NC(=O)c1ccc(N(C(N)=O)c2c(F)cccc2F)nc1-c1ccc(F)cc1F + CCN(CC)CCCCNc1ncc2cc(-c3cc(OC)cc(OC)c3)c(NC(=O)NC(C)(C)C)nc2n1 [PD173074] (first compound 0.4 µM, partner dose 0.1 µM)",105,95.4,95.6,113,101,110,106,110,92.8,111,106,107,90.9,108,138,97.4
"CCCCCCCCc1ccc(CCC(N)(CO)CO)cc1 [fingolimod] + CCc1ccc(CCOc2ccc(CC3SC(=O)NC3=O)cc2)nc1 [pioglitazone] (first compound 2 µM, partner dose 2 µM)",90.6,76.4,65.8,78.3,74.7,89.5,96.3,80,92.7,66.1,81,81.3,86.8,76.3,95.2,78.2
"NC(=O)c1ccc(N(C(N)=O)c2c(F)cccc2F)nc1-c1ccc(F)cc1F + OCCn1cc(-c2cnc3nnn(Cc4ccc5ncccc5c4)c3n2)cn1 [PF04217903] (first compound 0.4 µM, partner dose 1 µM)",111,99.8,108,99.9,97.7,110,113,105,96.4,101,100,100,104,83.4,91.7,118
"CC(C)(C)c1cnc(CSc2cnc(NC(=O)C3CCNCC3)s2)o1 + Cc1cc(N2CCOCC2)cc2[nH]c(-c3c(NC[C@@H](O)c4cccc(Cl)c4)cc[nH]c3=O)nc12 [BMS536924] (first compound 0.01 µM, partner dose 0.2 µM)",103,93.9,95.5,103,114,90.7,81.6,98.8,134,85.5,108,97.3,72.6,111,108,88.9
"NC(=O)c1ccc(N(C(N)=O)c2c(F)cccc2F)nc1-c1ccc(F)cc1F + CC(C)(C)c1cnc(CSc2cnc(NC(=O)C3CCNCC3)s2)o1 [SNS-032] (first compound 0.4 µM, partner dose 0.01 µM)",99.5,98,95.7,116,87.1,102,108,104,72.6,90.3,90,85.5,92.9,106,108,85.5
"NC(=O)c1ccc(N(C(N)=O)c2c(F)cccc2F)nc1-c1ccc(F)cc1F + COc1ccc2c(c1)CCC1C2CCC2(C)C(NCCCCCCN3C(=O)C=CC3=O)CCC12 [U73122] (first compound 0.4 µM, partner dose 0.4 µM)",95.7,86.2,74.7,87.8,83.5,90.8,94.4,106,88.6,79,91.4,76.7,74.5,102,88.4,97.4
"CCCCCCCCc1ccc(CCC(N)(CO)CO)cc1 [fingolimod] + COc1ccc(-c2ccc3c(N4CCOCC4)nc(N4C[C@@H](C)O[C@@H](C)C4)nc3n2)cc1CO [KU0063794] (first compound 2 µM, partner dose 0.02 µM)",90,106,72.3,103,83,96.3,78.6,87.1,61.6,83,95.4,71.4,55.1,87.2,69.1,99.8
"CCCCCCCCc1ccc(CCC(N)(CO)CO)cc1 [fingolimod] + CCN(CC)CCCCNc1ncc2cc(-c3cc(OC)cc(OC)c3)c(NC(=O)NC(C)(C)C)nc2n1 [PD173074] (first compound 2 µM, partner dose 0.1 µM)",98.2,100,95.8,79.4,76.3,92.5,85.5,97.1,109,87.4,103,101,90.5,65.2,92.4,158
"NC(=O)c1ccc(N(C(N)=O)c2c(F)cccc2F)nc1-c1ccc(F)cc1F + CC1(C)NC(=O)N(c2ccc([N+](=O)[O-])c(C(F)(F)F)c2)C1=O [nilutamide] (first compound 0.4 µM, partner dose 1 µM)",116,104,97,109,100,94.6,105,113,105,98.7,120,106,102,70.7,111,94.1
"NC(=O)c1ccc(N(C(N)=O)c2c(F)cccc2F)nc1-c1ccc(F)cc1F + CCCCCCCCCCCC1=C(O)C(=O)C=C(O)C1=O [Embelin] (first compound 0.4 µM, partner dose 1.2 µM)",108,118,98.3,124,85.3,101,82.4,101,76.1,99.3,109,94.8,105,89.4,94.8,71.8
"CCCCCCCCc1ccc(CCC(N)(CO)CO)cc1 [fingolimod] + Oc1cc(-c2nc(-c3ccccc3)[nH]c2-c2ccncc2)ccc1Cl [L779450] (first compound 2 µM, partner dose 0.2 µM)",68,96.4,58.4,84.7,77.5,108,85.6,95.7,85.2,71.6,80.2,88.2,82.7,70.1,78.7,88.2
"CCCCCCCCc1ccc(CCC(N)(CO)CO)cc1 [fingolimod] + COC(=O)c1sccc1S(=O)(=O)Nc1ccc(Nc2ccccc2)cc1OC [GSK0660] (first compound 2 µM, partner dose 1 µM)",97.2,107,74,102,93.5,91.9,87,102,103,86.2,86,95.7,82.9,85.8,88.4,97.4
"NC(=O)c1ccc(N(C(N)=O)c2c(F)cccc2F)nc1-c1ccc(F)cc1F + Cc1cc(N2CCOCC2)cc2[nH]c(-c3c(NC[C@@H](O)c4cccc(Cl)c4)cc[nH]c3=O)nc12 [BMS536924] (first compound 0.4 µM, partner dose 0.2 µM)",105,87,120,106,87.6,98,54,102,83.1,77.6,120,109,68.9,105,59.4,97.3
"NC(=O)c1ccc(N(C(N)=O)c2c(F)cccc2F)nc1-c1ccc(F)cc1F + C=CCn1c(=O)c2cnc(Nc3ccc(N4CCN(C)CC4)cc3)nc2n1-c1cccc(C(C)(C)O)n1 [MK1775] (first compound 0.4 µM, partner dose 0.02 µM)",106,105,79,70.6,86.2,92.2,101,81.1,77.7,81.4,86,84.3,77,89.8,57.2,78.1
"CCCCCCCCc1ccc(CCC(N)(CO)CO)cc1 [fingolimod] + COc1cc2c(Oc3ccc4[nH]c(C)cc4c3F)ncnc2cc1OCCCN1CCCC1 [cediranib] (first compound 2 µM, partner dose 0.4 µM)",98,106,85,95.6,92.6,87.3,90.7,90,86.6,71.9,93.1,83,80.8,94.4,117,109
"Cc1ccc(NC(=O)c2cccc(N(C)C)c2)cc1NC(=O)c1ccc(O)cc1 + C[C@@H]1CCN(C(=O)CC#N)C[C@@H]1N(C)c1ncnc2[nH]ccc12 [CP690550] (first compound 2 µM, partner dose 1 µM)",87.4,103,70.1,114,107,112,103,109,123,99.1,98.5,96.4,87.5,108,98.4,116
